# Source: the supplement of paper PMC8728848
# Some of the results follow.
# B1: ZG-16 (Homo sapiens), O60844 (protein)
# chain: IQARSSSYSGEYGSGGGKRFSHSGNQLDGPITALRVRVNTYYIVGLQVRYGKVWSDYVGGRNGDLEEIFLHPGESVIQVSGKYKWYLKKLVFVTDKGRYLSFGKDSGTSFNAVPLHPNTVLRFISGRSGSLIDAIGLHWDVYPTSCSRCSRGSDDDDKAEPRGPTIKPCPPCKCPAPNLLGGPSVFIFPPKIKDVLMISLSPIVTCVVVDVSEDDPDVQISWFVNNVEVHTAQTQTHREDYNSTLRVVSALPIQHQDWMSGKEFKCKVNNKDLPAPIERTISKPKGSVRAPQVYVLPPPEEEMTKKQVTLTCMVTDFMPEDIYVEWTNNGKTELNYKNTEPVLDSDGSYFMYSKLRVEKKNWVERNSYSCSVVHEGLHNHHTTKSFSRTPGKRTYHHHHHHARKLTR
# What was measured:
# Experiment in all cases: glycan array binding signal (z-score within array); higher = stronger binding
# Settings in all cases: glycan notation: IUPAC condensed, linker removed
# Fuc(a1-2)[Gal(a1-3)]Gal = molecular target: Fuc(a1-2)[Gal(a1-3)]Gal
# In short: (§1)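 Glycan array data were curated from 3228 arrays in the Consortium for Functional Glycomics database and kept only where the protein sequence was available. Glycan names were converted to IUPAC-condensed notation, and columns mapping to the same glycan were averaged. The binding signal is a within-array Z-score, averaged across arrays of the same protein sequence at different concentrations or buffers and across linkers. Negative Z-scores can be read as non-binding.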
# [1] = molecular target: Fuc(a1-2)[Gal(a1-3)]Gal(b1-3)GlcNAc
# In short: as §1
# [2] = molecular target: Fuc(a1-2)[Gal(a1-3)]Gal(b1-3)GlcNAc(b1-2)Man(a1-3)[Fuc(a1-2)[Gal(a1-3)]Gal(b1-3)GlcNAc(b1-2)Man(a1-6)]Man(b1-4)GlcNAc(b1-4)GlcNAc
# In short: as §1
# [3] = molecular target: Fuc(a1-2)[Gal(a1-3)]Gal(b1-4)Glc
# In short: as §1
# [4] = molecular target: Fuc(a1-2)[Gal(a1-3)]Gal(b1-4)GlcNAc
# In short: as §1
# [5] = molecular target: Fuc(a1-2)[Gal(a1-3)]Gal(b1-4)GlcNAc(b1-2)Man(a1-3)[Fuc(a1-2)[Gal(a1-3)]Gal(b1-4)GlcNAc(b1-2)Man(a1-6)]Man(b1-4)GlcNAc(b1-4)GlcNAc
# In short: as §1
# [6] = molecular target: Fuc(a1-2)[Gal(a1-3)]Gal(b1-4)[Fuc(a1-3)]GlcNAc
# In short: as §1
# [7] = molecular target: Fuc(a1-2)[Gal(a1-4)]Gal(b1-4)GlcNAc
# In short: as §1
# [8] = molecular target: Fuc(a1-2)[GalNAc(a1-3)]Gal
# In short: as §1
# [9] = molecular target: Fuc(a1-2)[GalNAc(a1-3)]Gal(b1-3)GalNAc(a1-3)[Fuc(a1-2)]Gal(b1-4)GlcNAc
# In short: as §1
# [10] = molecular target: Fuc(a1-2)[GalNAc(a1-3)]Gal(b1-3)GlcNAc
# In short: as §1
# [11] = molecular target: Fuc(a1-2)[GalNAc(a1-3)]Gal(b1-3)GlcNAc(b1-2)Man(a1-3)[Fuc(a1-2)[GalNAc(a1-3)]Gal(b1-3)GlcNAc(b1-2)Man(a1-6)]Man(b1-4)GlcNAc(b1-4)GlcNAc
# In short: as §1
# [12] = molecular target: Fuc(a1-2)[GalNAc(a1-3)]Gal(b1-4)Glc
# In short: as §1
# [13] = molecular target: Fuc(a1-2)[GalNAc(a1-3)]Gal(b1-4)GlcNAc
# In short: as §1
# [14] = molecular target: Fuc(a1-2)[GalNAc(a1-3)]Gal(b1-4)GlcNAc(b1-2)Man(a1-3)[Fuc(a1-2)[GalNAc(a1-3)]Gal(b1-4)GlcNAc(b1-2)Man(a1-6)]Man(b1-4)GlcNAc(b1-4)GlcNAc
# In short: as §1
# [15] = molecular target: Fuc(a1-2)[GalNAc(a1-3)]Gal(b1-4)GlcNAc(b1-3)Gal(b1-4)GlcNAc
# In short: as §1
# [16] = molecular target: Fuc(a1-2)[GalNAc(a1-3)]Gal(b1-4)GlcNAc(b1-3)Gal(b1-4)GlcNAc(b1-3)Gal(b1-4)GlcNAc
# In short: as §1
# [17] = molecular target: Fuc(a1-2)[GalNAc(a1-3)]Gal(b1-4)[Fuc(a1-3)]GlcNAc
# In short: as §1
# [18] = molecular target: Fuc(a1-2)[GalNAc(a1-4)]Gal(b1-4)GlcNAc
# In short: as §1
# [19] = molecular target: Fuc(a1-2)[GalNAc(b1-3)]Gal
# In short: as §1
# Fuc(a1-3)GlcNAc = molecular target: Fuc(a1-3)GlcNAc
# In short: as §1
# [20] = molecular target: Fuc(a1-3)[Gal(b1-4)]Glc6S
# In short: as §1
# [21] = molecular target: Fuc(a1-3)[Gal(b1-4)]GlcNAc
# In short: as §1
# [22] = molecular target: Fuc(a1-3)[Gal(b1-4)]GlcNAc(b1-2)Man(a1-3)[Fuc(a1-3)[Gal(b1-4)]GlcNAc(b1-2)Man(a1-6)]Man(b1-4)GlcNAc(b1-4)GlcNAc
# In short: as §1
# [23] = molecular target: Fuc(a1-3)[Gal(b1-4)]GlcNAc(b1-3)Gal(b1-3)[Fuc(a1-4)]GlcNAc
# In short: as §1
# [24] = molecular target: Fuc(a1-3)[Gal(b1-4)]GlcNAc(b1-3)GalNAc
# In short: as §1
# [25] = molecular target: Fuc(a1-3)[Gal(b1-4)]GlcNAc(b1-4)Gal(b1-4)[Fuc(a1-3)]GlcNAc
# In short: as §1
# [26] = molecular target: Fuc(a1-3)[Gal(b1-4)]GlcNAc(b1-4)Gal(b1-4)[Fuc(a1-3)]GlcNAc(b1-4)Gal(b1-4)[Fuc(a1-3)]GlcNAc
# In short: as §1
# [27] = molecular target: Fuc(a1-3)[Gal(b1-4)]GlcNAc(b1-6)[Gal(b1-3)GlcNAc(b1-3)]Gal(b1-4)Glc
# In short: as §1
# [28] = molecular target: Fuc(a1-3)[Gal(b1-4)]GlcNAc6S
# In short: as §1
# [29] = molecular target: Fuc(a1-3)[Gal3S(b1-4)]GlcNAc
# In short: as §1
# [30] = molecular target: Fuc(a1-3)[Gal3S(b1-4)]GlcNAc6S
# In short: as §1
# [31] = molecular target: Fuc(a1-3)[GalNAc(b1-4)]GlcNAc
# In short: as §1
# Fuc(a1-4)GlcNAc = molecular target: Fuc(a1-4)GlcNAc
# In short: as §1
# Fuc(b1-3)GlcNAc = molecular target: Fuc(b1-3)GlcNAc
# In short: as §1
# Gal(a1-2)Gal = molecular target: Gal(a1-2)Gal
# In short: as §1
# Gal(a1-3)Gal = molecular target: Gal(a1-3)Gal
# In short: as §1
binder,measurement,setting,value
B1,glycan array binding signal (z-score),Fuc(a1-2)[Gal(a1-3)]Gal,-0.217
same,glycan array binding signal (z-score),[1],-0.142
same,glycan array binding signal (z-score),[2],-0.177
same,glycan array binding signal (z-score),[3],-0.2
same,glycan array binding signal (z-score),[4],-0.085
same,glycan array binding signal (z-score),[5],-0.178
same,glycan array binding signal (z-score),[6],-0.205
same,glycan array binding signal (z-score),[7],-0.159
same,glycan array binding signal (z-score),[8],-0.202
same,glycan array binding signal (z-score),[9],-0.203
same,glycan array binding signal (z-score),[10],-0.033
same,glycan array binding signal (z-score),[11],-0.213
same,glycan array binding signal (z-score),[12],-0.169
same,glycan array binding signal (z-score),[13],-0.199
same,glycan array binding signal (z-score),[14],-0.214
same,glycan array binding signal (z-score),[15],-0.219
same,glycan array binding signal (z-score),[16],-0.168
same,glycan array binding signal (z-score),[17],-0.203
same,glycan array binding signal (z-score),[18],-0.201
same,glycan array binding signal (z-score),[19],-0.191
same,glycan array binding signal (z-score),Fuc(a1-3)GlcNAc,-0.179
same,glycan array binding signal (z-score),[20],-0.188
same,glycan array binding signal (z-score),[21],-0.184
same,glycan array binding signal (z-score),[22],0.273
same,glycan array binding signal (z-score),[23],-0.197
same,glycan array binding signal (z-score),[24],-0.168
same,glycan array binding signal (z-score),[25],-0.177
same,glycan array binding signal (z-score),[26],-0.161
same,glycan array binding signal (z-score),[27],-0.196
same,glycan array binding signal (z-score),[28],-0.174
same,glycan array binding signal (z-score),[29],-0.148
same,glycan array binding signal (z-score),[30],-0.158
same,glycan array binding signal (z-score),[31],-0.158
same,glycan array binding signal (z-score),Fuc(a1-4)GlcNAc,0.116
same,glycan array binding signal (z-score),Fuc(b1-3)GlcNAc,-0.162
same,glycan array binding signal (z-score),Gal(a1-2)Gal,-0.229
same,glycan array binding signal (z-score),Gal(a1-3)Gal,-0.229
